From publication PMC9408373
Results are given in words; binding and its absence hold for the method and conditions named. For some of these results: Binding seen in cells or lysates may run through a third protein. Some results given as binding are weak or reduced against the parent protein; the word gives no strength.

Protein sequences, listed by entry. Tags and fused reporters are not part of them. Lines headed by an entry give the natural chain unless they say otherwise; changes in a name come on top. Chains listed by the source or under a name are the forms on record and can include a tag or linker. Residues count along the entry.
human CDC42 (aa 1-178), wild type (P60953, residues 1-178): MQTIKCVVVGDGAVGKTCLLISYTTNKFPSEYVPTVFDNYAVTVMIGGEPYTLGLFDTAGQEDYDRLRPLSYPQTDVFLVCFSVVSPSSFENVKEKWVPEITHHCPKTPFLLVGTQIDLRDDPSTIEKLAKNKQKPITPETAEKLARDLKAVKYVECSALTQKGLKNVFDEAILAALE
GST-CDC42 A130K (P60953, form named): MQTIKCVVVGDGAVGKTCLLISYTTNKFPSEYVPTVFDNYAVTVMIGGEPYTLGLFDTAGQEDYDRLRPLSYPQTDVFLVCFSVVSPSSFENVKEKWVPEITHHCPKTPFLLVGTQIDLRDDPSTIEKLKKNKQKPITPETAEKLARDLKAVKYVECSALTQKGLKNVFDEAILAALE
GST-CDC42 S124D (P60953, form named): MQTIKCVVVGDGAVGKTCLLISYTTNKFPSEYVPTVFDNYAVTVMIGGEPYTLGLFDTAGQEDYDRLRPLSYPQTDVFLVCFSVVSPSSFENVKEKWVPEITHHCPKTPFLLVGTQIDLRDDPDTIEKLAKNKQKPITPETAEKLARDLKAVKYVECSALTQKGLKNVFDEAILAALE
human CDC42 (aa 1-178) Q61L (P60953, form named): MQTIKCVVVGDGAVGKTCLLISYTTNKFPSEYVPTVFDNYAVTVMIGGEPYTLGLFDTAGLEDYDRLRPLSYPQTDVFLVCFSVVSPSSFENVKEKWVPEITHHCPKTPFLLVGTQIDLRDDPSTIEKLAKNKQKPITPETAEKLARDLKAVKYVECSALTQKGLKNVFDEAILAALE
UniProt P46940: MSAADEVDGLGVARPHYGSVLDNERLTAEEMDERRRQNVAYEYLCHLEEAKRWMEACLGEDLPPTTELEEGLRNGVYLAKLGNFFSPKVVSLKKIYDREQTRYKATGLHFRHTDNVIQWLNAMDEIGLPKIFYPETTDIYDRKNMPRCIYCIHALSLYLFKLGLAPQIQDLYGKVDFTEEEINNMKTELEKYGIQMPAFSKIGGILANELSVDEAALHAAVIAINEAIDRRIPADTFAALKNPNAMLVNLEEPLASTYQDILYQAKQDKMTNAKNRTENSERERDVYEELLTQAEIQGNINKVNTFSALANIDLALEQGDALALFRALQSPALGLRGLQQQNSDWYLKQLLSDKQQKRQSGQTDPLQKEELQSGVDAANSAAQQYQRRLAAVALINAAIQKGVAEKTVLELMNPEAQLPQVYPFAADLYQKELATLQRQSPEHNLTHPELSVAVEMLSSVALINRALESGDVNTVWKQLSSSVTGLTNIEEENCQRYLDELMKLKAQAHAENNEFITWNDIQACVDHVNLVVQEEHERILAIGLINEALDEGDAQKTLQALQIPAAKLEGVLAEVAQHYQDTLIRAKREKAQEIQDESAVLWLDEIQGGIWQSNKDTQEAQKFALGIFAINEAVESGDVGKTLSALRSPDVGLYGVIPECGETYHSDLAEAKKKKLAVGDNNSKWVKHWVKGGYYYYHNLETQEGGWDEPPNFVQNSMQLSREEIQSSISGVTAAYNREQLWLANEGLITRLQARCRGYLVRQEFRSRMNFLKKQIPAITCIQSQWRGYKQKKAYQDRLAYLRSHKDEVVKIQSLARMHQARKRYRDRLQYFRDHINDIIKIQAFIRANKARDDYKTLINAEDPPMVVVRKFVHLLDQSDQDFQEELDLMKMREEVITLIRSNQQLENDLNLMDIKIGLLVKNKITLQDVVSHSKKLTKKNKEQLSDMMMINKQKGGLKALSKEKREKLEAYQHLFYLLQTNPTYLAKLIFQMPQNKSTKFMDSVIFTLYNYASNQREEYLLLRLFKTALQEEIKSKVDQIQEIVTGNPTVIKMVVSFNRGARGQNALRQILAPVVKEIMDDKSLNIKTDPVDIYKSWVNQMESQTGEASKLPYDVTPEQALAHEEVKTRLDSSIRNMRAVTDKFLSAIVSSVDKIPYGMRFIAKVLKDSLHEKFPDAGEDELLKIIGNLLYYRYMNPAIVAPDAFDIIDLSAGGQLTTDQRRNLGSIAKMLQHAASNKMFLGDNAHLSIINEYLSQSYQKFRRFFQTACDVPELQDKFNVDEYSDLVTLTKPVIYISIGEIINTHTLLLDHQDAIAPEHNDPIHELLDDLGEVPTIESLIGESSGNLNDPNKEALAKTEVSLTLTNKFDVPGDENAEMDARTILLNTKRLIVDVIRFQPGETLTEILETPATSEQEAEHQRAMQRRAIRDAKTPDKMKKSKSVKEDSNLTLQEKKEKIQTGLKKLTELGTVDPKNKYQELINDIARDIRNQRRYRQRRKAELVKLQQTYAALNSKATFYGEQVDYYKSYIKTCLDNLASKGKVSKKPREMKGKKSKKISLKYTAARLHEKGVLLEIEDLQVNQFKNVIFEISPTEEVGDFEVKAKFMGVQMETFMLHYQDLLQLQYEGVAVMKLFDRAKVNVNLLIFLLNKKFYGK

Columns and labels:
GST-CDC42 A130K (human) [1] = target: GST-CDC42 A130K (human) (UniProt P60953); experiment: pull-down; GDP-bound GST-GTPase on glutathione agarose beads, incubated with HEK293 lysate 1 h at 4 °C; blot with anti-IQGAP1; only the target purified
GST-CDC42 S124D (human) [2] = target: GST-CDC42 S124D (human) (UniProt P60953); experiment: as above
[3] = target: GST-CDC42 wild type (human) (UniProt P60953); experiment: as above
GST-CDC42 A130K (human) [4] = target: GST-CDC42 A130K (human) (UniProt P60953); experiment: pull-down; GppNHp-bound GST-GTPase on glutathione agarose beads, incubated with HEK293 lysate 1 h at 4 °C; blot with anti-IQGAP1; only the target purified
GST-CDC42 S124D (human) [5] = target: GST-CDC42 S124D (human) (UniProt P60953); experiment: as above
[6] = target: GST-CDC42 wild type (human) (UniProt P60953); experiment: as above
[7] = target: human CDC42 (aa 1-178), wild type (human) (UniProt P60953); experiment: fluorescence polarisation; 1 µM mant-GDP-bound CDC42 in the cuvette, IQGAP protein titrated; quadratic ligand binding equation; both purified
[8] = target: human CDC42 (aa 1-178), wild type (human) (UniProt P60953); experiment: fluorescence polarisation; 1 µM mant-GppNHp-bound CDC42 in the cuvette, IQGAP protein titrated; quadratic ligand binding equation; both purified
[9] = target: human CDC42 (aa 1-178) Q61L (human) (UniProt P60953); experiment: fluorescence polarisation; 1 µM mant-GDP-bound CDC42 in the cuvette, IQGAP protein titrated; quadratic ligand binding equation; both purified

binding (GST-CDC42 A130K (human) [1]) | binding (GST-CDC42 S124D (human) [2]) | binding [3] | binding (GST-CDC42 A130K (human) [4]) | binding (GST-CDC42 S124D (human) [5]) | binding [6] | binding [7] | binding [8] | binding [9] | Substance
no binding | binds weakly | binds | no binding | binds weakly | binds | – | – | – | IQGAP1 full-length, endogenous (from UniProt P46940 1-1657)
– | – | – | – | – | – | binds weakly | binds weakly | – | human IQGAP1 CT (aa 1576-1657) (from UniProt P46940 1576-1657) (domain or fragment)
– | – | – | – | – | – | binds weakly | – | binds weakly | human IQGAP1 GRD1 (aa 962-1345) (from UniProt P46940 962-1345) (domain or fragment)
